Assay results reported in the supplement of paper PMC3334620.
In all, about 33,000 sequences were measured (“E-score (-0.5 to 0.5)”: median about -0.016, highest 2% from about 0.32 on). Some of the results follow.

target: T1, Stp1 (UniProt B3LFK1); assay: PBM E-score (8-mer binding enrichment) (E-score (-0.5 to 0.5)); higher = stronger / more preferred TF binding; most listed sequences are background and not binding sites; details: protein concentration: 200 nM; construct: GST-full length
T1 sequence: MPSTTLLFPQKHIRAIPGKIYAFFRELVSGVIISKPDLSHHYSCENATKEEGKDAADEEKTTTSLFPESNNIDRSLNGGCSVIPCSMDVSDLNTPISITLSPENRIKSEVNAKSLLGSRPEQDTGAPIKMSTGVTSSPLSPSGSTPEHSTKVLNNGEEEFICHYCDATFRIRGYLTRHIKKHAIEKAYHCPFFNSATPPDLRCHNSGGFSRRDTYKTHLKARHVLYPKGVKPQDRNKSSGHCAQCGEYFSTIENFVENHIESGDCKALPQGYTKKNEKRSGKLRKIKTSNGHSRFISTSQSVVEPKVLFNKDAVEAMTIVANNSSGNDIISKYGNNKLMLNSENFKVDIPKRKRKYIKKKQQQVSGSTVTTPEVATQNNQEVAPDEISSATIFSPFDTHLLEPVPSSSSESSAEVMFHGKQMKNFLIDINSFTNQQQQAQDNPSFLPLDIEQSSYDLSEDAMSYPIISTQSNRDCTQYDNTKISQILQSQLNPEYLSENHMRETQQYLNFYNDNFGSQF
Experimental: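 Universal 'all 10-mer' protein binding microarrays (Agilent AMADID 015681) probed with GST-tagged S. cerevisiae TFs (full-length or DBD) made by in vitro transcription/translation (PURExpress), about 100-200 nM. Bound TF was detected with fluorescent anti-GST. Each ungapped 8-mer (which stands for itself and its reverse complement) is scored by the PBM enrichment score (E-score), a modified Wilcoxon-Mann-Whitney statistic from -0.5 to +0.5, computed with the Universal PBM Analysis Suite. Scale: above 0.35 generally sequence-specific binding.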

Row | Sequence | PBM E-score
1 | CGCACAAC | -0.0295
2 | ACCTTCGG | -0.124
3 | ATCAGCCC | -0.181
4 | CCATATTC | -0.0131
5 | CAATGTCC | -0.216
6 | GGGCCACC | -0.17
7 | CTTCAGAA | 0.0658
8 | CCCCACCC | -0.0823
9 | CCCTACGC | -0.0574
10 | GCCTGAAC | -0.198
11 | AGGAAGGC | 0.0626
12 | GCTATAAC | -0.0348
13 | GTGTTTCA | 0.012
14 | CTCGGCGA | 0.123
15 | AAAGGAAA | 0.196
16 | ATGTAACA | 0.208
17 | GGGCCCAA | -0.146
18 | CACGTGTC | -0.116
19 | CGGGGGGC | -0.23
20 | GGGATTGA | -0.0707
21 | GCAGCAAA | -0.171
22 | GATCCTCC | -0.268
23 | ACTCTAAT | 0.024
24 | ACTCCAAC | -0.0586
25 | AGTTTTGA | 0.0682

Row | Sequence | PBM E-score
26 | AAATCTAA | 0.056
27 | CAGTATGC | 0.0773
28 | TATCTCGA | 0.0361
29 | AGTGTAAA | 0.00911
30 | CGCTTGGA | -0.0508
31 | GCCTCACC | 0.327
32 | GGCTCGAC | 0.0122
33 | AGAGGCCT | -0.0752
34 | ATCGATGG | -0.144
35 | AAGGTTGC | -0.182
36 | CGGTATAC | -0.246
37 | GGTATGCA | -0.294
38 | GTGCCAGA | -0.141
39 | CGGGACAG | 0.00286
40 | AGCGCCAA | -0.059
41 | GTTGCTCA | 0.0145
42 | GAGTTTCC | -0.113
43 | ACAGAGTC | -0.0844
44 | GTTACCAA | 0.1
45 | AAAGAGCA | 0.02
46 | ACTCACCT | -0.268
47 | ACTCTAGG | -0.175
48 | GAACTATA | 0.138
49 | GTACGAAA | 0.167
50 | ACGCGCGA | 0.105

Row | Sequence | PBM E-score
51 | AGTTATAT | 0.0872
52 | AACTCATA | 0.0506
53 | CCGAGAGA | -0.157
54 | CGGACAGC | 0.132
55 | CAAGGGGA | -0.141
56 | TCAAATCA | 0.0147
57 | CGAGTCTA | -0.269
58 | AAAGGGTA | -0.0413
59 | AAGCGCCC | 0.0315
60 | CCATCACA | -0.146
61 | AACTGATG | 0.141
62 | CACGGATG | 0.15
63 | ATTGCCTG | 0.0108
64 | GAACATTA | -0.0121
65 | AGGGCCTG | -0.411
66 | AGCAACCA | 0.0168
67 | CGGTGACC | -0.219
68 | AAATCGGC | 0.194
69 | AGTATTAG | 0.102
70 | CTGCCCGA | -0.119
71 | AAAAACCT | 0.00613
72 | GGGTAAGA | -0.301
73 | AACTCGCG | 0.17
74 | ACTAGTCC | -0.0744
75 | CTAATACC | -0.0185

Row | Sequence | PBM E-score
76 | ATTAGTTG | 0.195
77 | GCCTACTA | 0.16
78 | AGGGGACC | -0.296
79 | CGCTTTGA | 0.00673
80 | ATAATAAA | 0.206
81 | TACCATCA | -0.208
82 | ACTCGGTC | -0.161
83 | TAGACTCA | -0.152
84 | ACGCTTAA | 0.109
85 | ACACCAGC | -0.171
86 | GCGCAAGC | 0.0713
87 | ACCGGTAT | -0.197
88 | CGACGTAA | 0.0897
89 | GTCCCCGA | -0.342
90 | CGACTCAA | -0.124
91 | ACTGCTAT | -0.00517
92 | CACAGCAA | 0.296
93 | CGATTACA | 0.0812
94 | ATGCCAAA | 0.0153
95 | ATCCTGAA | 0.179
96 | AGACATCG | 0.00868
97 | AAGGTGGA | -0.173
98 | AATGGCGC | 0.253
99 | CGGTAAAC | 0.0601
100 | CTGGGTGA | -0.229

Row | Sequence | PBM E-score
101 | GCAACGCA | -0.106
102 | ATCGTAAA | 0.161
103 | GGCGTGTA | 0.0932
104 | ACGTAGCT | -0.0696
105 | GCAGCGCC | 0.33
106 | ACTTTTTA | 0.157
107 | TGCCCTAA | -0.0334
108 | AAGATAAC | 0.0624
109 | CGGTGTCC | -0.191
110 | CTAAGTAC | 0.0791
111 | AAGAGGAC | -0.148
112 | CACATCAC | -0.044
113 | TCAGACGA | 0.0806
114 | AGCTGATA | 0.0196
115 | AAAAAGAC | 0.0559
116 | CGGGCCAA | -0.355
117 | CACTAAGA | 0.0987
118 | ATAGCTCA | -0.0693
119 | AACATAGT | 0.0588
120 | ATCCTGTC | 0.0801
121 | GCATAAAC | 0.172
122 | CGGTACTC | -0.096
123 | ATGGTCCC | -0.3
124 | GACATTGC | 0.0112
125 | ATATTTAA | 0.248

Row | Sequence | PBM E-score
126 | CACCTTTC | -0.138
127 | TCACCCGA | -0.121
128 | AAGAGCGG | 0.0636
129 | AGAGCAAT | -0.0766
130 | CGGGCCGA | -0.167
131 | GGTTGTAA | 0.0757
132 | TCCTAGCA | -0.114
133 | CCGAATGC | 0.219
134 | TTCAAGAA | 0.146
135 | AGGGAAGC | -0.202
136 | TCGAGAAA | -0.00991
137 | AGTCAGGA | -0.197
138 | AGAAAAAG | 0.0202
139 | CTGCCAAG | -0.212
140 | GAAGGCCC | -0.171
141 | CCTTCCCG | -0.114
142 | GCGGGGAA | -0.00444
143 | AGTTAAGG | -0.0459
144 | ATCGCGGG | -0.168
145 | AGTCTGAG | -0.161
146 | ACTGCTCG | -0.0391
147 | CTATTTAA | 0.0116
148 | TAGGAATA | -0.0335
149 | ACATAGCA | 0.0267
150 | GTCTTTAA | 0.0478

Row | Sequence | PBM E-score
151 | CCGTATAG | 0.188
152 | GCAGAAGA | 0.0471
153 | AGACATAA | 0.0682
154 | CCAGTACG | 0.0588
155 | CTACGTGC | 0.0735
156 | ATTTTATG | 0.0902
157 | GTCGCTTA | 0.0681
158 | GTGCCCTA | 0.218
159 | AATCCCAG | -0.0827
160 | CTAGCGAC | -0.134
161 | TATCGGAA | 0.0528
162 | AGTCCATC | -0.179
163 | GCAGTATA | 0.0785
164 | GAGTACGA | 0.0292
165 | GCCATGGA | -0.147
166 | TCGGCTCA | -0.0668
167 | ACCTGGCT | -0.234
168 | AACATGAC | 0.00759
169 | CGTCGCGA | 0.165
170 | GTGGACCA | -0.0846
171 | AATGTTCA | -0.00134
172 | CAAGAAGG | -0.116
